The supplement of paper PMC4604168 (melanoma cell lines)
The list shows a part of the results. Many values rest on one well or one pass, so single values are uncertain.

Each compound was assayed on A101D (assay: cell count relative to DMSO control; melanoma cells; higher = more viable cells). Conditions: library dose: standard library concentration; 72 h.
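Further: cells treated in 1,536-well plates, then fixed and DAPI-stained, with nuclei counted from automated high-throughput microscope images.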

Compound	cell count
CCN(CC)CCNC(=O)c1c(C)[nH]c(/C=C2\C(=O)Nc3ccc(F)cc32)c1C [sunitinib] + Nc1nc(F)nc2c1ncn2[C@@H]1O[C@H](CO)[C@@H](O)[C@@H]1O [fludarabine] (first compound 2 µM, partner dose 1 µM)	57.7%
C[C@]1(O)C[C@@H](c2nc(-c3ccc4ccc(-c5ccccc5)nc4c3)c3c(N)nccn32)C1 + CN1CCN(c2ccc3nc(-c4c(N)c5c(F)cccc5[nH]c4=O)[nH]c3c2)CC1 [Dovitinib] (first compound 2 µM, partner dose 0.5 µM)	58.6%
COc1cc([C@@H]2c3cc4c(cc3[C@@H](O[C@@H]3O[C@@H]5CO[C@@H](C)O[C@H]5[C@H](O)[C@H]3O)[C@H]3COC(=O)[C@H]23)OCO4)cc(OC)c1O [etoposide] + CCCCCCCCc1ccc(CCC(N)(CO)CO)cc1 [fingolimod] (first compound 0.1 µM, partner dose 10 µM)	9.96%
Cn1cnc2c(F)c(Nc3ccc(Br)cc3Cl)c(C(=O)NOCCO)cc21 [selumetinib] + Oc1nc(-c2ccc(C(F)(F)F)cc2)nc2c1CSCC2 [XAV939] (first compound 0.075 µM, partner dose 10 µM)	71.3%
C[C@]1(O)C[C@@H](c2nc(-c3ccc4ccc(-c5ccccc5)nc4c3)c3c(N)nccn32)C1 + NC1(c2ccc(-c3nc4ccn5c(=O)[nH]nc5c4cc3-c3ccccc3)cc2)CCC1 [MK2206] (first compound 2 µM, partner dose 2 µM)	69.3%
CCN(CC)CCNC(=O)c1c(C)[nH]c(/C=C2\C(=O)Nc3ccc(F)cc32)c1C [sunitinib] + C[C@@H](Oc1cc(-c2cnn(C3CCNCC3)c2)cnc1N)c1c(Cl)ccc(F)c1Cl [Crizotinib] (first compound 2 µM, partner dose 1 µM)	63.1%
CCN(CC)CCNC(=O)c1c(C)[nH]c(/C=C2\C(=O)Nc3ccc(F)cc32)c1C [sunitinib] + C=CCn1c(=O)c2cnc(Nc3ccc(N4CCN(C)CC4)cc3)nc2n1-c1cccc(C(C)(C)O)n1 [MK1775] (first compound 2 µM, partner dose 0.1 µM)	62.5%
CCN(CC)CCNC(=O)c1c(C)[nH]c(/C=C2\C(=O)Nc3ccc(F)cc32)c1C [sunitinib] + CO[C@@H]1[C@H](N(C)C(=O)c2ccccc2)C[C@H]2O[C@]1(C)n1c3ccccc3c3c4c(c5c6ccccc6n2c5c31)C(=O)NC4 [Midostaurin] (first compound 2 µM, partner dose 0.4 µM)	56.2%
COc1cc([C@@H]2c3cc4c(cc3[C@@H](O[C@@H]3O[C@@H]5CO[C@@H](C)O[C@H]5[C@H](O)[C@H]3O)[C@H]3COC(=O)[C@H]23)OCO4)cc(OC)c1O [etoposide] + CC(C)C[C@H](NC(=O)[C@H](Cc1ccccc1)NC(=O)c1cnccn1)B(O)O [Bortezomib] (first compound 0.1 µM, partner dose 0.005 µM)	18.7%
C[C@]1(O)C[C@@H](c2nc(-c3ccc4ccc(-c5ccccc5)nc4c3)c3c(N)nccn32)C1 + CS(=O)(=O)c1ccc(C(=O)Nc2ccc(Cl)c(-c3ccccn3)c2)c(Cl)c1 [vismodegib] (first compound 2 µM, partner dose 5 µM)	99.9%
Cn1cnc2c(F)c(Nc3ccc(Br)cc3Cl)c(C(=O)NOCCO)cc21 [selumetinib] + Nc1cccc2c1CN(C1CCC(=O)NC1=O)C2=O [lenalidomide] (first compound 0.075 µM, partner dose 5 µM)	85.3%
CCN(CC)CCNC(=O)c1c(C)[nH]c(/C=C2\C(=O)Nc3ccc(F)cc32)c1C [sunitinib] + CCCCCCCCc1ccc(CCC(N)(CO)CO)cc1 [fingolimod] (first compound 2 µM, partner dose 10 µM)	5.35%
COc1cc([C@@H]2c3cc4c(cc3[C@@H](O[C@@H]3O[C@@H]5CO[C@@H](C)O[C@H]5[C@H](O)[C@H]3O)[C@H]3COC(=O)[C@H]23)OCO4)cc(OC)c1O [etoposide] + Cn1cncc1[C@@](N)(c1ccc(Cl)cc1)c1ccc2c(c1)c(-c1cccc(Cl)c1)cc(=O)n2C [tipifarnib] (first compound 0.1 µM, partner dose 0.05 µM)	89.6%
CCN(CC)CCNC(=O)c1c(C)[nH]c(/C=C2\C(=O)Nc3ccc(F)cc32)c1C [sunitinib] + O=C(O)c1ccc(-c2c[nH]c3ncc(-c4ccccc4)cc23)cc1C1CCCC1 [GSK650394] (first compound 2 µM, partner dose 0.8 µM)	57.9%
COc1cc([C@@H]2c3cc4c(cc3[C@@H](O[C@@H]3O[C@@H]5CO[C@@H](C)O[C@H]5[C@H](O)[C@H]3O)[C@H]3COC(=O)[C@H]23)OCO4)cc(OC)c1O [etoposide] + Cc1cc(N2CCOCC2)cc2[nH]c(-c3c(NC[C@@H](O)c4cccc(Cl)c4)cc[nH]c3=O)nc12 [BMS536924] (first compound 0.1 µM, partner dose 1 µM)	97.8%
COc1cc([C@@H]2c3cc4c(cc3[C@@H](O[C@@H]3O[C@@H]5CO[C@@H](C)O[C@H]5[C@H](O)[C@H]3O)[C@H]3COC(=O)[C@H]23)OCO4)cc(OC)c1O [etoposide] + CN(NC(=O)CC(=O)NN(C)C(=S)c1ccccc1)C(=S)c1ccccc1 [STA4783] (first compound 0.1 µM, partner dose 0.03 µM)	66.8%
CCN(CC)CCNC(=O)c1c(C)[nH]c(/C=C2\C(=O)Nc3ccc(F)cc32)c1C [sunitinib] + CCCS(=O)(=O)Nc1ccc(F)c(C(=O)c2c[nH]c3ncc(Cl)cc23)c1F [PLX4720] (first compound 2 µM, partner dose 0.4 µM)	53.9%
Cn1cnc2c(F)c(Nc3ccc(Br)cc3Cl)c(C(=O)NOCCO)cc21 [selumetinib] + OCc1c[nH]c2ccccc12 [Indole-3-carbinol] (first compound 0.075 µM, partner dose 4 µM)	63.3%
CCN(CC)CCNC(=O)c1c(C)[nH]c(/C=C2\C(=O)Nc3ccc(F)cc32)c1C [sunitinib] + CC(=O)c1c(C)c2cnc(Nc3ccc(N4CCNCC4)cn3)nc2n(C2CCCC2)c1=O [palbociclib] (first compound 2 µM, partner dose 0.2 µM)	68.5%
COc1cc([C@@H]2c3cc4c(cc3[C@@H](O[C@@H]3O[C@@H]5CO[C@@H](C)O[C@H]5[C@H](O)[C@H]3O)[C@H]3COC(=O)[C@H]23)OCO4)cc(OC)c1O [etoposide] + Cn1c(Nc2ccc(C(F)(F)F)cc2)nc2cc(Oc3ccnc(-c4ncc(C(F)(F)F)[nH]4)c3)ccc21 [CHIR265] (first compound 0.1 µM, partner dose 0.4 µM)	58.7%
C[C@]1(O)C[C@@H](c2nc(-c3ccc4ccc(-c5ccccc5)nc4c3)c3c(N)nccn32)C1 + CS(=O)(=O)CCNCc1ccc(-c2ccc3ncnc(Nc4ccc(OCc5cccc(F)c5)c(Cl)c4)c3c2)o1 [lapatinib] (first compound 2 µM, partner dose 4 µM)	73.6%
C[C@]1(O)C[C@@H](c2nc(-c3ccc4ccc(-c5ccccc5)nc4c3)c3c(N)nccn32)C1 + Cc1ccc(NC(=O)c2cccc(N(C)C)c2)cc1NC(=O)c1ccc(O)cc1 [ZM336372] (first compound 2 µM, partner dose 10 µM)	100%
CCN(CC)CCNC(=O)c1c(C)[nH]c(/C=C2\C(=O)Nc3ccc(F)cc32)c1C [sunitinib] + C=C(c1ccc(C(=O)O)cc1)c1cc2c(cc1C)C(C)(C)CCC2(C)C [Bexarotene] (first compound 2 µM, partner dose 10 µM)	81.6%
COc1cc([C@@H]2c3cc4c(cc3[C@@H](O[C@@H]3O[C@@H]5CO[C@@H](C)O[C@H]5[C@H](O)[C@H]3O)[C@H]3COC(=O)[C@H]23)OCO4)cc(OC)c1O [etoposide] + NC(=O)c1ccc(N(C(N)=O)c2c(F)cccc2F)nc1-c1ccc(F)cc1F [VX702] (first compound 0.1 µM, partner dose 2 µM)	97.8%
Cn1cnc2c(F)c(Nc3ccc(Br)cc3Cl)c(C(=O)NOCCO)cc21 [selumetinib] + C#Cc1cccc(Nc2ncnc3cc(OCCOC)c(OCCOC)cc23)c1 [erlotinib] (first compound 0.075 µM, partner dose 4 µM)	60.6%
